# Data taken from the supplement of paper PMC3334620.
# Over roughly 33,000 sequences, “E-score (-0.5 to 0.5)” has its median near -0.035; the highest 2% begin near 0.34. The list shows a part of the results.
# Target: T1, Mot3 (UniProt P54785)
# T1 sequence: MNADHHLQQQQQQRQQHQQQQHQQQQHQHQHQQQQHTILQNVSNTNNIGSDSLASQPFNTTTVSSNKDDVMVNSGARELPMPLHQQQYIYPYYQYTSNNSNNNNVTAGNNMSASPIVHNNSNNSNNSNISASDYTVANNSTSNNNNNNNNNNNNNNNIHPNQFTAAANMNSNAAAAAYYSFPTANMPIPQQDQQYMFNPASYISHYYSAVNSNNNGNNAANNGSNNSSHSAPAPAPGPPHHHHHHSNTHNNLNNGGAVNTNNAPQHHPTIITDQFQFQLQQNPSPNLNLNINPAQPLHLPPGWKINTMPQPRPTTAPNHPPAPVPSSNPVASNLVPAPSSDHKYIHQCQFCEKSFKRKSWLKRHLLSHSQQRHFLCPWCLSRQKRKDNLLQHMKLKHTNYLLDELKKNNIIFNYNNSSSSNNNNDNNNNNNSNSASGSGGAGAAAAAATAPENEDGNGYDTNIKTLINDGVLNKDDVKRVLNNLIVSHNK
# Assay: PBM E-score (8-mer binding enrichment) (E-score (-0.5 to 0.5)); higher = stronger / more preferred TF binding; most listed sequences are background and not binding sites
# Conditions: protein concentration: 200 nM; construct: GST-full length
# Procedure, shortened: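 Yeast transcription factors, full-length or as DNA-binding domains, were expressed with a GST tag using PURExpress in vitro transcription/translation. At about 100-200 nM they were applied to universal all-10-mer Agilent arrays, double-stranded by primer extension on fresh or once-stripped slides. Fluorescent anti-GST detected bound protein, and masliner normalised the scans. E-scores for ungapped eight-base words, pooled with reverse complements, came from the Universal PBM Analysis Suite.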
row,Sequence,PBM E-score
1,CAGAAAAA,0.0512
2,CAACGGTC,-0.116
3,AGAGGCGA,-0.227
4,ACACGTAC,0.294
5,GCCCCATA,-0.194
6,ACCTTCTA,0.0758
7,GAGCAATC,-0.124
8,GGAGGCCA,-0.34
9,AGAGGCAA,0.409
10,AGGTAATG,0.279
11,GCTTGGAA,-0.183
12,AATTTAAA,0.0101
13,CTCGTGAC,-0.0128
14,ACGACCAA,-0.0227
15,AAATTTCT,0.196
16,CCTATGCA,0.0643
17,CACAGAGG,0.0647
18,GGACCTAC,-0.112
19,ACACTTCG,0.0312
20,CCTGGCCG,-0.079
21,AAGGGACG,-0.0888
22,TAAAGGCA,0.481
23,ACAAAAGT,0.14
24,CAAAGCCG,-0.0128

row,Sequence,PBM E-score
1,GGGAATCA,-0.268
2,ACAAAATC,0.0183
3,ACTTGATG,0.113
4,CGAGTAGA,-0.138
5,CGCTAGGA,-0.00295
6,CGCATACG,0.0571
7,CCTTAAGG,0.345
8,ATCAGTCC,-0.281
9,GGGTTGAA,-0.104
10,ACCTGCGT,0.238
11,GTGGCCAA,-0.264
12,GGCCTTTA,0.00584
13,GATGGGGA,-0.318
14,GAAGTAGC,-0.254
15,AACCACAT,0.104
16,GTTGGCAA,0.0926
17,AAGGTTCG,0.0144
18,AGATCAAG,0.191
19,TAGAGTAA,0.112
20,CAAAGTCC,-0.187
21,GCCTAACC,0.127
22,TATGTGAA,0.163
23,CGGAGAAA,-0.183
24,CAGCAGAC,-0.148

row,Sequence,PBM E-score
1,CCAGGTAC,0.238
2,AACCTGCC,0.0302
3,GCACATAA,0.076
4,CAGCGCCG,-0.367
5,CCCCTTCG,-0.0557
6,AACTAATA,0.181
7,CCAGGTAA,0.238
8,ACGTATCA,0.0928
9,CCGTGTCC,0.0332
10,CCGAGACA,-0.169
11,CCGTATAC,-0.0578
12,ATCCGGTG,0.0537
13,CATGGCCC,-0.0426
14,AAGCGCTT,0.143
15,ACTATTCA,-0.0153
16,CTATAGCC,-0.247
17,CGGTGCAC,-0.0155
18,CTTATGTC,0.0522
19,TAGGTTAA,0.199
20,CAACCGCC,-0.0661
21,CGGTTCCC,-0.165
22,CTCCAGAC,-0.252
23,GGGACAAA,-0.143
24,TCCGTTAA,0.0596

row,Sequence,PBM E-score
1,ATGTAAAT,0.42
2,AAATGATA,0.2
3,TGATAGCA,-0.0602
4,CTGTCCGC,-0.0944
5,AGCGGATG,-0.0731
6,ATACACGG,0.375
7,GACAACCC,-0.00439
8,GACTTTCA,-0.155
9,CACGATCC,0.106
10,CCGAAGGA,-0.101
11,CGGCACTC,-0.251
12,ATTCAGAA,-0.0281
13,AGAGCTAC,0.105
14,CTAATTAG,0.0326
15,AGGGGCCC,-0.107
16,GCACAAGC,0.117
17,CGCTTTAA,0.191
18,AATGTCAC,0.0858
19,GTCTCTGA,-0.0606
20,ACATAGCT,0.135
21,ATTCTGTC,-0.0735
22,CGAAGGAG,-0.225
